Experimental data from article PMC12214887.
No constants are given. Whether binding was seen depends on the method and setting. For part of these data: Binding seen in cells or lysates may run through a third protein. Some entries that bind do so weakly or less than the wild type. For part of these data: Sequences can lack the tags named with a protein.

How the values were obtained:
[1] = molecular target: BD-ComM (ComM fused to the Gal4 DNA binding domain) (Streptococcus pneumoniae); test: two-hybrid; Y2H matrices: Gal4 AD (pGAD-C1, PJ69-4α) and BD (pGBDU-C1, PJ69-4a) fusions, diploids by mating, growth on selective plates lacking leucine, uracil and adenine (-LUA); empty vectors as controls for auto-activation
[2] = molecular target: T1, DprA-SmBit (Streptococcus pneumoniae), Q8DPI7; test: split reporter; split-luciferase complementation (LgBit/SmBit) in living S. pneumoniae cells 15 min after competence induction with CSP1 at 37 °C; NanoGlo substrate, luminescence in a plate reader; settings: remark: other sources report otherwise
T1 chain: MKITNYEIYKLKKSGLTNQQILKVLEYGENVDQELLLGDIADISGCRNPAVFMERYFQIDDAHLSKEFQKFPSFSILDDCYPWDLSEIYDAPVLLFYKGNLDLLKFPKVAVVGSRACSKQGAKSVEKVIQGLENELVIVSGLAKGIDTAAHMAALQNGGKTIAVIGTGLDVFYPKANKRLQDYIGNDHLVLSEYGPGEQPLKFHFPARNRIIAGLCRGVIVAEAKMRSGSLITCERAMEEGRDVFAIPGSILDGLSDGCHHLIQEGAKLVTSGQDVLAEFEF

[3] = molecular target: FtsW, full length, Gal4 AD or BD fusion (Streptococcus pneumoniae); test: two-hybrid; Y2H matrices: Gal4 AD (pGAD-C1, PJ69-4α) and BD (pGBDU-C1, PJ69-4a) fusions, diploids by mating, growth on selective plates lacking leucine, uracil and adenine (-LUA); empty vectors as controls for auto-activation
[4] = molecular target: BD-ComM (ComM fused to the Gal4 DNA binding domain) (Streptococcus pneumoniae); test: two-hybrid; genome-wide screen: BD-ComM bait (pGBDU-C1, PJ69-4a) mated with a genomic S. pneumoniae library fused to the Gal4 AD (pGAD-C1, PJ69-4α); selection on medium lacking leucine, uracil and either histidine or adenine, 7–14 days

In the case of “FtsW, full length, Gal4 AD or BD fusion (from UniProt A0ACD7PRK7 1-409)”, the binding [1] is reported as “no binding”.

B1: DprA-SmBit, Q8DPI7 1-282 (protein)
chain: T1 chain
For B1, the binding [2] was “binds”.

B2: PBP2x, full length, Gal4 AD or BD fusion (protein, UniProt P59676 1-750)
chain: MKWTKRVIRYATKNRKSPAENRRRVGKSLSLLSVFVFAIFLVNFAVIIGTGTRFGTDLAKEAKKVHQTTRTVPAKRGTIYDRNGVPIAEDATSYNVYAVIDENYKSATGKILYVEKTQFNKVAEVFHKYLDMEESYVREQLSQPNLKQVSFGAKGNGITYANMMSIKKELEAAEVKGIDFTTSPNRSYPNGQFASSFIGLAQLHENEDGSKSLLGTSGMESSLNSILAGTDGIITYEKDRLGNIVPGTEQVSQRTMDGKDVYTTISSPLQSFMETQMDAFQEKVKGKYMTATLVSAKTGEILATTQRPTFDADTKEGITEDFVWRDILYQSNYEPGSTMKVMMLAAAIDNNTFPGGEVFNSSELKIADATIRDWDVNEGLTGGRMMTFSQGFAHSSNVGMTLLEQKMGDATWLDYLNRFKFGVPTRFGLTDEYAGQLPADNIVNIAQSSFGQGISVTQTQMIRAFTAIANDGVMLEPKFISAIYDPNDQTARKSQKEIVGNPVSKDAASLTRTNMVLVGTDPVYGTMYNHSTGKPTVTVPGQNVALKSGTAQIADEKNGGYLVGLTDYIFSAVSMSPAENPDFILYVTVQQPEHYSGIQLGEFANPILERASAMKDSLNLQTTAKALEQVSQQSPYPMPSVKDISPGDLAEELRRNLVQPIVVGTGTKIKNSSAEEGKNLAPNQQVLILSDKAEEVPDMYGWTKETAETLAKWLNIELEFQGSGSTVQKQDVRANTAIKDIKKITLTLGD
B2 was tested, and the binding [1] was “no binding”.

B3: DivIB, full length, Gal4 AD or BD fusion (protein, UniProt Q8DQM0 1-396)
chain: MSKDKKNEDKETLEELKELSEWQKRNQEYLKKKAEEEVALAEEKEKERQARMGEESEKSEDKQDQESETDQEDSESAKEESEEKVASSEADKEKEEPESKEKEEQDKKLAKKATKEKPAKAKIPGIHILRAFTILFPSLLLLIVSAYLLSPYATMKDIRVEGTVQTTADDIRQASGIQDSDYTINLLLDKAKYEKQIKSNYWVESAQLVYQFPTKFTIKVKEYDIVAYYISGENHYPILSSGQLETSSVSLNSLPETYLSVLFNDSEQIKVFVSELAQISPELKAAIQKVELAPSKVTSDLIRLTMNDSDEVLVPLSEMSKKLPYYSKIKPQLSEPSVVDMEAGIYSYTVADKLIMEAEEKAKQEAKEAEKKQEEEQKKQEEESNRNQTNQRSSRR
B3 was tested, and the binding [3] was “binds” and the binding [1] was “binds”.

B4: DivIB fragment aa 14-82 (prey clone of the genome-wide Y2H screen) (domain or fragment, UniProt Q8DQM0 14-82)
chain: EELKELSEWQKRNQEYLKKKAEEEVALAEEKEKERQARMGEESEKSEDKQDQESETDQEDSESAKEESE
With B4 the binding [4] was “binds”.
